In publication PMC4336329 (PLoS ONE, 2015):
Among all 310,000 compounds or so, about 14,000 (4.5%) showed an effect of 50% or more. The effect is printed as a negative number. This is one part of the list.

These compounds were tested against human ether-à-go-go-related gene (hERG) potassium channel (human, UniProt Q12809) (assay: primary screen, population patch clamp on CHO cells stably expressing hERG).
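Note: peak tail current of the secondary pulse compared with the same well before compound.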

human ether-à-go-go-related gene (hERG) potassium channel, sequence (Q12809 whole entry, looked up): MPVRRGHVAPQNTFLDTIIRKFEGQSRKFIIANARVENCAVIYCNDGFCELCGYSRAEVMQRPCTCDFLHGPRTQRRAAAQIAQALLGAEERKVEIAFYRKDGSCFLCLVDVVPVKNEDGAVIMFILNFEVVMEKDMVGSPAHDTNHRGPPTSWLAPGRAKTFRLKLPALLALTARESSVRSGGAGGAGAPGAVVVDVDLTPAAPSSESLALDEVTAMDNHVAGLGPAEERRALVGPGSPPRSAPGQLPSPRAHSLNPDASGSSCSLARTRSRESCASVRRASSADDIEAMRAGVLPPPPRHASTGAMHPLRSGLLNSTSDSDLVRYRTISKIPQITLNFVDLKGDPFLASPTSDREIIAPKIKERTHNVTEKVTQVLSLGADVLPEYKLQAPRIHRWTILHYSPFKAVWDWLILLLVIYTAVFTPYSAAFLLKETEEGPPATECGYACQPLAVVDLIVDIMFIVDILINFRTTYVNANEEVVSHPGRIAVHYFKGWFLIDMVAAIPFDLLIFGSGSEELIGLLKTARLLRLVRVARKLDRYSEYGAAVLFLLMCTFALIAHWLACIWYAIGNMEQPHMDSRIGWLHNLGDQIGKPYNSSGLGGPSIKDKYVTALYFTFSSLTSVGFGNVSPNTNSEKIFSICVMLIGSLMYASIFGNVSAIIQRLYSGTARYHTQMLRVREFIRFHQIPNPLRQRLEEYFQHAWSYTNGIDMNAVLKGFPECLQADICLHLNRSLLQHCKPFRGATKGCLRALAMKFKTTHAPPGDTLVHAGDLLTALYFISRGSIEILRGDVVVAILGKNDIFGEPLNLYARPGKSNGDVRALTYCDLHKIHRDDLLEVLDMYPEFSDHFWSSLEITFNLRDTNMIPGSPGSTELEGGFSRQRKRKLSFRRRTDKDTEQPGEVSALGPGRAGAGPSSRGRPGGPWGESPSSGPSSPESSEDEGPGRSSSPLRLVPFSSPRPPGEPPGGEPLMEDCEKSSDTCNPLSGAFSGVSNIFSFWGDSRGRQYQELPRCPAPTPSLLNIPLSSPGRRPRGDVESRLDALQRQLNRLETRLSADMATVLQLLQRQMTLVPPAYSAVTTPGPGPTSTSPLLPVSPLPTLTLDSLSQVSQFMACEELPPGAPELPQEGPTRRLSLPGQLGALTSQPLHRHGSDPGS

SMILES	hERG current change (%, negative = inhibition) at 10uM [%]
CCOC(=O)CSc1nc(C)cc(C)n1	7.29
COc1ccc(-c2noc3c2-c2nc(-c4ccccc4C)sc2CC3)cc1	16.7
CCCOC(=O)c1ccc(Cl)c(NC(=O)c2cccnc2)c1	-42.3
COc1ccc(C2CC(=O)c3ccccc3O2)cc1 (centres unmarked)	-0.451
Cc1snc(S(=O)(=O)Cc2c(Cl)cccc2Cl)c1C#N	-11.5
COc1ccc(S(=O)(=O)Nc2cccc(F)c2C)cc1C(=O)N1CCOCC1	6.33
O=C(c1nn(Cc2ccccc2)c(=O)c2ccccc12)N1CCN(c2ccccn2)CC1	-66.3
COc1ccccc1NC(=O)C(C)OC(=O)CC1CCCC1 (centres unmarked)	0.474
CN(C)S(=O)(=O)c1ccc(C(=O)N2CCN=C2SCc2ccccc2)cc1	20.9
CCCCNC(=S)Nc1ccccc1Cc1ccccc1	10.7
C=CCNC(=O)/C(=C\c1cccc([N+](=O)[O-])c1)NC(=O)c1ccccc1	-53.4
COc1cc(CNc2ccc3[nH]c(=O)[nH]c3c2)ccc1OCc1ccccc1Cl	26.4
Fc1ccc(NC(=S)Nc2ccccc2OC(F)F)cc1Cl	9.18
Cc1cc(C)n(CCCNCC(O)c2ccccc2)n1.O=C(O)C(=O)O (centres unmarked)	-0.223
CCOn1c(SCC)nc2ccccc2c1=O	-15.7
CCOc1ccc(S(=O)(=O)N2CCN(C(=O)c3cccn3C)CC2)cc1	-29.5
CC1CN(C(=O)COc2ccc3c(-c4ccccc4)cc(=O)oc3c2)CC(C)O1 (centres unmarked)	-12.8
COc1ccc2c(c1)O[C@H](c1ccc3c(c1)OCO3)[C@@H](OC(=O)Nc1cc(OC)c(OC)c(OC)c1)C2=O	2.73
Oc1ccc(-c2sc(Nc3ccccc3)n[n+]2-c2ccc(F)cc2)cc1.[Cl-]	-1.63
CCCCN1C(=O)c2ccc(C(=O)Nc3c(N)n(CCCC)c(=O)n(C)c3=O)cc2C1=O	-51.9
CC1CCN(C2(O)C(=O)Nc3ccc(Cl)cc32)CC1 (centres unmarked)	4.26
COC(=O)C1=C(N)N(c2ccccc2F)C2=C(C(=O)CC(C)(C)C2)C1c1ccc(OC)c(OC)c1 (centres unmarked)	-36.2
CCOC(=O)c1sc2ncnc(N3CCN(C)CC3)c2c1C	-24.3

SMILES	hERG current change (%, negative = inhibition) at 10uM [%]
Cc1cccc2cc(CN(Cc3ccco3)C(=O)c3ccncc3)c(=O)[nH]c12	-31.6
O=C(O)CSc1nnc(COc2cccc3cccnc23)n1-c1cccc(C(F)(F)F)c1	26.5
Cc1ccc(OCC(=O)Nc2nnn(C)n2)c(C)c1	6.25
Cc1ccc2c(C(=O)CN3CCCC3)c(C)[nH]c2c1	-6.89
C=CCn1cccc(C(=O)Nc2ccc(Cl)cc2)c1=O	-3.33
CCOC(=O)c1cc(CC)sc1NC(=O)C1CC1	-7.16
COc1ccccc1-c1nc(C#N)c(N2CCN(Cc3ccccc3)CC2)o1	-10.3
O=C1CC(c2ccccc2)CC2=C1C=Nc1ccccc1N2 (centres unmarked)	-61
Nc1nonc1-c1nc2ccccc2n1CC(=O)NC1CCCC1	-9.7
CC1(C)Cn2c(nc(=O)c3c2NCN(CCc2ccccc2)C3)S1	-0.167
NCc1cccc(CNc2ccc([N+](=O)[O-])cc2C(N)=O)c1	-19.9
CC(C)NC(=O)C1CCN(S(=O)(=O)c2ccc(N3CCCC3=O)cc2)CC1	16.2
N=C1C(c2nc3ccccc3[nH]2)=C(O)CN1c1ccc(F)cc1	-0.0371
CC(C)(C)c1cc(C(F)(F)F)n2ncc(-c3ccccc3)c2n1	11.1
S=C(NCc1ccc(Cl)c(Cl)c1)NCc1ccco1	-2.07
NC(=O)CC(NC(=O)Cc1cccc2ccccc12)c1ccc(N2CCC(Br)CC2)c([N+](=O)[O-])c1 (centres unmarked)	-9.19
CCSc1nc(-c2ccccc2)c(C#N)c(=O)[nH]1	12.5
COc1cc(C(=O)OCC(=O)NC(=O)c2cccn2C)ccc1OC(F)F	16.5
Cc1ccc(C(=O)N2CCN(C34CC5CC(CC(C5)C3)C4)CC2)o1	-29.4
Cn1c(SCC(=O)NC2CC2)nnc1-c1cccc(NC(=O)c2ccccc2F)c1	-3.11
COc1ccc(C2c3ccc4ccccc4c3Oc3ncn(CCCO)c(=N)c32)cc1 (centres unmarked)	-71.6
Cc1cc(C)n(-c2ccc(Cl)c(C(=O)Nc3cc(C(F)(F)F)ccc3Cl)n2)n1	7.18
Cc1ccc2nc(SCC(=O)N3CCC(Cc4ccccc4)CC3)nc(=O)n2c1	-65

SMILES	hERG current change (%, negative = inhibition) at 10uM [%]
CC(=O)CC1(O)C(=O)N(CN2CCN(c3ccccc3)CC2)c2ccccc21 (centres unmarked)	-8.62
COc1ccccc1CNC(=O)CCS(=O)(=O)c1cccc2nonc12	7.52
COc1ccc(S(=O)(=O)Nc2cc3c4c(c2)CC(=O)N4CCC3)cc1	-6.18
Cc1ccc(NS(=O)(=O)c2c(C(=O)N3CCCCCC3)c(C)n(C)c2C)c(Cl)c1	-4.38
COCc1cc(CNC(=O)C2CCC(=O)N(Cc3ccccc3F)C2)[nH]n1 (centres unmarked)	15.8
CCOC(=O)CNC(=O)c1c2c(nc3ccccc13)CCCC2	10.7
O=C(/C=C/c1ccc(Cl)cc1)NCCN1CCOCC1	-24
C[n+]1ccccc1/C=C/c1ccc2ncccc2c1.[I-]	18.4
CCN(CC(=O)NCc1cccs1)C(=O)c1cc(S(=O)(=O)N2CCOCC2)ccc1C	-20.4
O=C(CCCn1c(=O)c2cccn2c2cccnc21)NCc1cccc(Br)c1	-13.8
CCn1c(COc2ccc(=O)n(-c3ccccc3)n2)nnc1SC	2.39
Cn1c(Cn2c(=O)sc3ccccc32)nnc1SCC(=O)Nc1cccc(Cl)c1	6.52
CCSc1ccc(C(=O)NCC(=O)O)cc1	13.1
Cc1nn(C)c(C)c1NC(=O)c1cnn2c(C(F)F)cc(-c3ccccc3)nc12	40.4
CCn1ncc(C2=NOC(C(=O)NCc3ccccc3)C2)c1C (centres unmarked)	-8.34
Cn1cnnc1SCC(=O)NCc1cccc(C(F)(F)F)c1	23.8
S=C(NCCCN1CCOCC1)Nc1cccc(-c2nnc3n2CCCCC3)c1	16.3
CC(CO)(CO)NC(=O)c1ccc(=O)[nH]n1	-2.88
CC1=NN(C2=NS(=O)(=O)c3ccccc32)C(C)(O)C1 (centres unmarked)	-24.2
Cc1ccc(NC(=O)C2(N(C(=O)Cn3nnnc3N)c3ccc(C)cc3)CCCCC2)cc1	18.3
CCc1nnc(NC(=O)C2CCCN2C(=O)Nc2ccccc2OC)s1 (centres unmarked)	9.41
O=C(COC(=O)C1C2CC3OC(=O)C1C3C2)Nc1ccc(F)cc1 (centres unmarked)	13.2
Nc1nn(-c2ccccc2)c(N)c1N=Nc1ccccc1F	-15.9

SMILES	hERG current change (%, negative = inhibition) at 10uM [%]
[O-][n+]1c2ccccc2c2n1CCN=C2c1ccc(Cl)cc1	-0.431
COc1ccc(S(=O)(=O)N2CCOCC2)cc1NC(=O)c1cccc(Cl)c1	11.7
COCCNC(=O)C(c1ccc(C)o1)N(Cc1ccc(OC)cc1)C(=O)Cn1nnc2ccccc21 (centres unmarked)	-11
O=C(CCNC(=O)c1ccc(Br)o1)NC1CCCC1	-10.8
COc1ccc(/C=N/N=C2\CC3CCC2(C)C3(C)C)cc1O (centres unmarked)	-3.34
COCCSc1ccccc1C(=O)NCc1ccc2c(c1)OCO2	-3.55
O=C(CN1CCN(c2ccccc2)CC1)Nc1ccc2c(c1)OCCO2	5.46
COc1ccc(N(CC(=O)N/N=C/c2ccccc2OC)S(=O)(=O)c2ccccc2)cc1	19.9
CCCN(C(=O)c1ccc(OCC(C)C)cc1)c1c(N)n(Cc2ccccc2)c(=O)[nH]c1=O	-6.61
O=C(NNC(=O)c1ccc(F)cc1F)c1ccc2c(c1)OCO2	10.9
CC(C)c1ccc(O)c(C(=O)c2cnn(-c3ccccc3)c2)c1	11.4
O=C(COc1cc(Cl)c(Cl)cc1Cl)NCCc1ccccn1	-1.45
Cc1[nH]c2ccccc2c1/C=C/c1nc2ccccc2c(=O)n1CCO	-9.31
CC1CCN(C(=O)c2cc3ccccc3cc2O)CC1	-4.17
CC(=O)c1ccc(S(=O)(=O)NC2CC(=O)N(c3cccc(F)c3)C2)cc1 (centres unmarked)	-28.1
COc1cc(C(=O)NCc2cc(C)nc3ccccc23)cc(OC)c1OC	24.4
O=C(c1cc2ccccc2s1)N1CCOCC1	2.99
COc1ccc(S(=O)(=O)NCCSCc2ccco2)cc1OC	-37.1
CC(Sc1nnc(Nc2ccccc2F)s1)C(=O)NC1CC1 (centres unmarked)	-11.4
COc1cccc(CN(C(=O)c2ccccc2Br)C2CCS(=O)(=O)C2)c1 (centres unmarked)	19
